From PubChem BioAssay AID651820 (National Center for Advancing Translational Sciences (NCATS), 2012)
Hit rate of the full screen: of about 340,000 compounds, about 12,000 (3.5%) were called active. Inconclusive means that the source gave no clear call. Such entries were picked first, then a sample of the others. Calls follow the shape of the dose curve; as a rule, active = well fitted inhibition curve with a large enough effect; inconclusive = small, poorly fitted or top-dose-only effect, or another doubt; inactive = no such curve, though single readings can be large or run the other way. No potency is given beside an inconclusive call; the fits are too rough.

Assay: qHTS Assay for Inhibitors of Hepatitis C Virus (HCV)
Conditions: Huh7.5.1 HCVcc-Cre (HCVcc is cell-culture hepatitis C virus) infection, luciferase reporter, 44 h; activity change, negative = inhibition: at 41.8 µM (top of the series)
How it was run: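 Cells seeded at 1,000/well and cultured 4 h, then compounds added followed by HCVcc-Cre virus (~0.5 moi). After 44 h further culture, luciferase substrate was added, plates held 15 min at room temperature, and luminescence read for 15 sec.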
% is scaled to controls: 0 for no effect and ±100 for the full control effect; potency is read from the fitted curve at half-maximal effect; tags tell the direction and shape of the fitted curve.

Row | Structure (SMILES) | activity change, negative = inhibition | Potency
1 | CCc1noc(C)c1C(=O)OC(C)C(=O)Nc1ccc2c(c1)OCO2 (stereo not drawn) | inactive: -0.789% | –
2 | FC(F)(F)c1nnc2c(Sc3ccccn3)nc3ccccc3n12 | – | inconclusive [inhibitor, single point]
3 | CC1CCc2c(sc(NC(=O)c3ccc(-c4ccccc4[N+](=O)[O-])o3)c2C#N)C1 (stereo not drawn) | – | inconclusive [inhibitor, partial curve, poor fit]
4 | CCOc1ccc(Nc2nc(Cc3nnc(SCC(=O)c4ccc(C)c(C)c4)o3)cs2)cc1 | – | inconclusive [inhibitor, partial curve]
5 | Cc1ccccc1NC(=O)N1C2CCCC1CC(NC(=O)C1CC1)C2 (stereo not drawn) | inactive: 6.46% | –
6 | CC1CN(C(=S)NC(=O)c2ccccc2)CC(C)O1 (stereo not drawn) | inactive: 23% | –
7 | COc1ccc(N(CC(=O)NCc2ccco2)S(C)(=O)=O)c(OC)c1 | inactive: 9.11% | –
8 | CCOC(=O)c1cnc(N)nc1C(F)(F)F | inactive: 18.3% | –
9 | CCC(=O)Nc1cccc(-c2nc3ccccc3o2)c1 | – | inconclusive [inhibitor, single point]
10 | O=C(Nc1ccc(S(=O)(=O)N2CCCCC2)cc1)c1ccc(Cl)nc1 | – | inconclusive [inhibitor, partial curve]
11 | COc1ccc(Cl)cc1NC(=O)CSc1nc(NS(=O)(=O)c2ccccc2)cc(=O)[nH]1 | – | inconclusive [inhibitor, single point]
12 | CN(C)c1ccc(-c2nnn(Cc3ccccc3Br)n2)cc1 | inactive: 0.474% | –
13 | Cn1c(CNC(=O)CCNC(=O)c2ccc(F)c(F)c2)cc(=O)n(C)c1=O | inactive: 21.2% | –
14 | Cc1nc2ccccc2c(=O)n1-c1cccc(NC(=O)c2cccs2)c1 | – | inconclusive [inhibitor, single point]
15 | CC(C)(C)C(=O)/C(=C/c1cccc([N+](=O)[O-])c1)n1cncn1 | – | active: 3.16 µM
16 | CCOC(=O)c1c(C)[nH]c(C(=O)COC(=O)COc2ccc(OC)cc2)c1C | inactive: -1.55% | –
17 | CC1C/C(=C\c2cccnc2)C(=O)/C(=C/c2cccnc2)C1 (stereo not drawn) | – | inconclusive [inhibitor, full curve]
18 | O=C(COc1ccc([N+](=O)[O-])cc1)Nc1ccc2c(c1)OCO2 | inactive: -29.7% | –
19 | CCc1ccc(NC(=O)CN(c2ccc(OC)cc2)S(=O)(=O)c2c(C)nn(C)c2C)cc1 | inactive: -4.12% | –
20 | COc1cccc(Cl)c1NC(=O)N1CCc2c([nH]c3ccccc23)C1C(F)(F)F (stereo not drawn) | – | inconclusive [inhibitor, single point]
21 | CCOC(=O)C1CCCN(C(=O)CNC(=O)c2nn(-c3ccc(OC)c(Cl)c3)c(=O)c3ccccc23)C1 (stereo not drawn) | inactive: -20.5% | –
22 | O=C(N=Nc1c(O)n(Cc2ccccc2)c2ccccc12)c1ccc(O)cc1 | – | inconclusive [inhibitor, partial curve]
23 | COc1cccc(Nc2nnc(SCC(=O)Nc3sccc3C(N)=O)s2)c1 | – | inconclusive [inhibitor, single point]
24 | Cc1sc2nc(CN3CCCC3)nc(N3CCC(C(N)=O)CC3)c2c1C | – | inconclusive [inhibitor, single point]
25 | COc1ccc(C(=O)NCC(=O)N=Nc2c(O)n(Cc3ccccc3)c3ccccc23)cc1OC | – | inconclusive [inhibitor, single point]

Row | Structure (SMILES) | activity change, negative = inhibition | Potency
26 | O=C(CSc1nnc(-c2ccccc2)n1Cc1ccco1)Nc1ccc2c(c1)OCCO2 | inactive: -11.8% | –
27 | COc1cccc(-n2nnc3c(=O)n(CC(=O)Nc4cc(C)on4)cnc32)c1 | – | inconclusive [inhibitor, single point]
28 | CCCCCCn1c(=O)c(C(=O)Nc2nc(CC(=O)OCC)cs2)c(O)c2ccccc21 | – | inconclusive [inhibitor, partial curve]
29 | Cc1ccccc1-c1ccccc1CN1[C@@H](C(C)C)COCCS1(=O)=O | inactive: -1.11% | –
30 | Fc1cccc(CN(C2=NCCN2)c2c(Cl)cccc2Cl)c1 | – | inconclusive [inhibitor, single point]
31 | CCc1nc2ccc(Br)cc2c(=O)n1-c1ccccc1C(F)(F)F | – | inconclusive [inhibitor, full curve, poor fit]
32 | Cc1sc2nc(-c3ccccn3)[nH]c(=O)c2c1-c1ccccc1 | – | active: 10 µM
33 | CCOc1ccc(NC(=S)N2CCC(C(=O)c3ccc(F)cc3)CC2)cc1 | – | inconclusive [inhibitor, partial curve]
34 | O=C(COC(=O)c1ccc([N+](=O)[O-])o1)Nc1ccc2c(c1)OCO2 | inactive: -7.45% | –
35 | CCCCOc1ccc(C(O)(CCC)CCN2CCOCC2)cc1 (stereo not drawn) | – | inconclusive [inhibitor, single point]
36 | Clc1ccc(-c2cc(CSc3ccccc3)on2)cc1 | inactive: -1.36% | –
37 | CCCC(=O)NC(C)C(c1cccs1)N1CCN(c2ccccc2)CC1 (stereo not drawn) | – | inconclusive [inhibitor, full curve, poor fit]
38 | NC(=O)N/N=C/c1ccccc1OC(=O)c1ccccc1Br | – | inconclusive [inhibitor, single point]
39 | Cc1cccc(NC(=O)c2ccc([N+](=O)[O-])cc2Cl)n1 | inactive: -5.94% | –
40 | CCOC(=O)c1c(NC(=O)CSc2nnnn2-c2ccc3c(c2)OCCO3)sc(C)c1C | – | inconclusive [inhibitor, partial curve]
41 | O=c1c2cc(NC(=S)NC3CCCCC3)ccc2nc2n1CCCCC2 | – | inconclusive [inhibitor, single point]
42 | Cc1ccc(C)c(NC(=O)c2cc3ccccn3n2)c1 | inactive: 8.99% | –
43 | CC1CC(C)CN(c2nc3c(c(=O)n(C)c(=O)n3C)n2CCSc2nc3ccccc3o2)C1 (stereo not drawn) | inactive: 8.7% | –
44 | O=C(COC(=O)c1ccc(O)cc1O)Nc1ncc(Cl)cc1Cl | – | inconclusive [inhibitor, single point]
45 | CSc1ccc(CN(C)Cc2nc3cc(C(F)(F)F)ccc3c(=O)[nH]2)cc1 | inactive: -8.74% | –
46 | COc1ccc(-c2csc3nc[nH]c(=O)c23)cc1OC | inactive: -3.85% | –
47 | CCn1c(SCCC(=O)Nc2ccccc2)nnc1-c1ccc(OC)cc1 | – | inconclusive [inhibitor, partial curve, poor fit]
48 | CC(=O)OC1CCC2(C)C(CCC3C2CC(=O)C2(C)C3CC(N3CC3)C2C(C)=O)C1 (stereo not drawn) | inactive: -18% | –
49 | Cc1ccc2c(c1)-c1cc(C)ccc1C2=O | – | inconclusive [inhibitor, full curve]
50 | O=C(N/N=C/c1ccc[nH]1)c1sc2ccccc2c1Cl | – | inconclusive [inhibitor, single point]

Row | Structure (SMILES) | activity change, negative = inhibition | Potency
51 | COc1cc(Cl)ccc1NC(=S)N(CCCN1CCOCC1)Cc1cn(C)c2ccccc12 | – | inconclusive [inhibitor, single point]
52 | Cc1cc(C(=O)NCc2ccccc2F)cs1 | inactive: 4.1% | –
53 | O=C(N/N=C(\c1ccccc1)c1cccnc1)c1ccc(O)cc1 | inactive: 3.34% | –
54 | O=C(CNC(=O)c1ccc(F)cc1)c1ccc(Cl)cc1 | – | inconclusive [inhibitor, single point]
55 | COC(=O)C(NS(=O)(=O)c1ccc(C)cc1)c1ccccc1 (stereo not drawn) | – | inconclusive [inhibitor, single point]
56 | CCc1ccc(-c2nn(Cc3ccccc3)cc2C=O)cc1 | – | inconclusive [inhibitor, single point]
57 | CCCc1nc(SCC(=O)N2CCOCC2)c2c(C)c(C)sc2n1 | inactive: 0.716% | –
58 | Cc1ccc(-c2cc(C(=O)NCc3cccs3)no2)cc1 | inactive: 10.4% | –
59 | N=c1c(S(=O)(=O)c2ccccc2)cc2c(=O)n3ccccc3nc2n1C1CCCCC1 | – | inconclusive [inhibitor, single point]
60 | CCCOc1ccccc1NC(=O)Nc1ccccc1Cl | – | inconclusive [inhibitor, partial curve]
61 | Cc1cc2nc(/N=C(\N)NC(=O)N3c4ccccc4Sc4ccccc43)nc(C)c2cc1C | – | inconclusive [inhibitor, single point]
62 | CC1CCCCN1CCNC(=O)c1ccc2c(c1)N(Cc1ccccc1)C(=O)c1ccccc1S2(=O)=O (stereo not drawn) | – | inconclusive [inhibitor, single point]
63 | O=C(NNC(=O)c1ccc(Oc2cc(Cl)cc(Cl)c2)o1)c1ccccc1 | – | inconclusive [inhibitor, single point]
64 | CCOc1ccc(CCNC(=O)Cn2ncn3nc(-c4ccc(OC)cc4)cc3c2=O)cc1OCC | inactive: -3.02% | –
65 | CCOc1cc(CNc2ccc(Br)cc2)cc(Br)c1OCC(=O)NC(C)(C)C | – | inconclusive [inhibitor, single point]
66 | O=[n+]1cc(-c2ccccc2)n([O-])c2c1CCC2 | – | inconclusive [inhibitor, single point]
67 | Cc1cc(C(=O)Nc2c(C)nn(Cc3c(Cl)cccc3Cl)c2C)no1 | inactive: -25.6% | –
68 | O=C(O)c1cc(S(=O)(=O)N2CCN(S(=O)(=O)c3ccccc3)CC2)ccc1Cl | inactive: 17.4% | –
69 | CN(C)CCCN(Cc1cc2cc3c(cc2[nH]c1=O)OCO3)C(=S)Nc1ccccc1 | – | inconclusive [inhibitor, partial curve]
70 | CN(C)S(=O)(=O)c1ccc(C(=O)Nc2ccc3c(c2)CCC3)cc1 | – | inconclusive [inhibitor, single point]
71 | OCC[C@H]1C[C@H](O)[C@@H](O)[C@@]2(Cc3ccccc3CCO2)O1 | – | inconclusive [inhibitor, single point]
72 | COc1ccc(-c2ccc(SCC(=O)c3cccs3)nn2)cc1OC | – | inconclusive [inhibitor, single point]
73 | COc1ccccc1-c1cc(C(=O)N/N=C/C=C/c2ccccc2[N+](=O)[O-])c2ccccc2n1 | – | inconclusive [inhibitor, partial curve]
